Among the data in the supplement of paper PMC11166567 are mean average precision values, retold here.

The subject of one assay is A549. Description: mean average precision of replicate retrieval against DMSO controls (Cell Painting phenotypic activity) (fraction (0-1)); higher = stronger, more reproducible morphological phenotype distinct from DMSO; extreme values may be limits of the assay. Particulars: 5 µM.
In the next assay the test system is U2OS. The description is as above. Conditions: 5 µM.

This is one part of the list.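 How the source made its calls: active = permutation test q below 0.05 after Benjamini-Hochberg correction; inactive = q of 0.05 or more.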
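Further: cosine similarity of well-level aggregated Cell Painting profiles ranks each compound's replicate wells against DMSO wells, four replicate plates, significance from 100,000 rank shuffles.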

As for `COc1cc2c(c(OC)c1OC)-c1ccc(OC)c(=O)cc1[C@@H](NC(C)=O)CC2`, the mean average precision with A549 (24 h), in the assay on A549 (48 h), with U2OS (24 h) and in the assay on U2OS (48 h) was active: 1 each time.

`O[C@H]1[C@H](O)[C@@H](O)CN2CC[C@H](O)[C@H]12`: the mean average precision with A549 (24 h) is inactive: 0.225; with A549 (48 h), inactive: 0.212; in the assay on U2OS (24 h), inactive: 0.299; with U2OS (48 h), inactive: 0.0632.

As for `O=C1NC(=O)c2c1c1c3ccccc3[nH]c1c1[nH]c3ccccc3c21`, the mean average precision in the assay with A549 (24 h), in the assay with A549 (48 h), in the assay on U2OS (24 h) and in the assay with U2OS (48 h) was active: 1 throughout.

Regarding `COc1ccc(N(C(=O)Oc2c(C)cccc2C)c2ccnc(Nc3ccc(N4CCN(C)CC4)cc3)n2)c(OC)c1`, the mean average precision with A549 (24 h), in the assay with A549 (48 h), in the assay with U2OS (24 h) and with U2OS (48 h) was active: 1 in each case.

`NCC(CS(=O)(=O)O)c1ccc(Cl)cc1` (centres undefined): the mean average precision in the assay with A549 (24 h) is inactive: 0.187; with A549 (48 h), inactive: 0.278; with U2OS (24 h), active: 0.439; in the assay with U2OS (48 h) it was inactive: 0.101.

With `C[C@@H]1C[C@@H]([C@H](O)CC2CC(=O)NC(=O)C2)C(=O)[C@@H](C)C1`, the mean average precision in the assay on A549 (24 h), in the assay with A549 (48 h), in the assay on U2OS (24 h) and in the assay with U2OS (48 h) was active: 1 in each case.

For `O=P1(N(CCCl)CCCl)NCCCO1` (centres undefined), the mean average precision was inactive: 0.224 in the assay on A549 (24 h), active: 0.592 in the assay with A549 (48 h), active: 0.678 with U2OS (24 h) and active: 0.362 in the assay on U2OS (48 h).

Take `C=C(C)[C@@H]1[C@H]2OC(=O)[C@H]1[C@]1(O)C[C@H]3O[C@]34C(=O)O[C@H]2[C@]14C`: the mean average precision in the assay with A549 (24 h) was active: 0.33; in the assay on A549 (48 h) it was active: 0.725; in the assay on U2OS (24 h) it was active: 0.457; with U2OS (48 h) it was inactive: 0.0817.

Regarding `CCC1(C2=NCCN2)Cc2ccccc2O1` (centres undefined), the mean average precision with A549 (24 h) was inactive: 0.297; in the assay on A549 (48 h), inactive: 0.206; in the assay with U2OS (24 h), inactive: 0.107; with U2OS (48 h) it was inactive: 0.104.

Turning to `CC(C)(O)C1C2OC(=O)C1C1(O)CC3OC34C(=O)OC2C14C` (centres undefined), the mean average precision in the assay on A549 (24 h) was active: 0.382; in the assay on A549 (48 h), active: 0.638; in the assay with U2OS (24 h) it was inactive: 0.119; with U2OS (48 h) it was inactive: 0.0901.

Consider `O=C1NCN(c2ccccc2)C12CCN(CC1COc3ccccc3O1)CC2` (centres undefined), for which the mean average precision is active: 0.505 in the assay on A549 (24 h), active: 0.313 in the assay on A549 (48 h), active: 0.456 in the assay with U2OS (24 h) and active: 0.334 with U2OS (48 h).

Take `Nc1ccncc1`: the mean average precision with A549 (24 h) is active: 0.409; in the assay with A549 (48 h), active: 0.461; in the assay with U2OS (24 h), active: 0.355; with U2OS (48 h) it was inactive: 0.19.

Turning to `C=C1CCC2(O)C3Cc4ccc(O)c5c4C2(CCN3CC2CC2)C1O5` (centres undefined), the mean average precision with A549 (24 h) is active: 0.48; with A549 (48 h), active: 0.5; with U2OS (24 h) it was active: 0.551; in the assay with U2OS (48 h), active: 0.565.

On to `C[C@@H]1CN(Cc2ccc(F)cc2)CCN1C(=O)COc1ccc(Cl)cc1NC(N)=O`, for which the mean average precision in the assay on A549 (24 h) is active: 0.343; with A549 (48 h), active: 0.979; in the assay on U2OS (24 h), active: 0.758; with U2OS (48 h) it was active: 0.727.

For `C/C(=C\c1csc(C)n1)[C@H]1C[C@@H]2O[C@]2(C)CCC[C@H](C)[C@H](O)[C@@H](C)C(=O)C(C)(C)[C@H](O)CC(=O)O1`, the mean average precision in the assay with A549 (24 h), in the assay on A549 (48 h), in the assay with U2OS (24 h) and in the assay on U2OS (48 h) was active: 1 throughout.

`COc1ccc(C[C@H]2NC[C@H](O)[C@H]2OC(C)=O)cc1`: the mean average precision in the assay with A549 (24 h), with A549 (48 h), with U2OS (24 h) and with U2OS (48 h) was active: 1 throughout.

Regarding `FC(F)OC(F)(F)C(F)Cl` (centres undefined), the mean average precision in the assay on A549 (24 h) is inactive: 0.08; with A549 (48 h), active: 0.44; with U2OS (24 h) it was inactive: 0.07; with U2OS (48 h), inactive: 0.0731.

Consider `CCCCC/C=C\C/C=C\C/C=C\C/C=C\CCCC(=O)NCCO`, for which the mean average precision in the assay with A549 (24 h) was active: 0.439; in the assay on A549 (48 h), active: 0.52; in the assay on U2OS (24 h), active: 0.586; in the assay with U2OS (48 h), inactive: 0.246.

Consider `OC(Cc1ccncc1)C(Cl)(Cl)Cl` (centres undefined), for which the mean average precision in the assay on A549 (24 h) is inactive: 0.229; in the assay with A549 (48 h) it was active: 0.503; in the assay on U2OS (24 h), active: 0.611; with U2OS (48 h), inactive: 0.233.

With `Cc1[nH]cnc1CCN`, the mean average precision with A549 (24 h) is inactive: 0.336; in the assay with A549 (48 h), active: 0.748; in the assay on U2OS (24 h), active: 0.528; in the assay on U2OS (48 h), active: 0.497.

Turning to `CCOC(=O)c1ncc2[nH]c3ccc(OCc4ccccc4)cc3c2c1COC`, the mean average precision in the assay on A549 (24 h) was active: 0.742; with A549 (48 h), active: 0.993; in the assay on U2OS (24 h), active: 0.913; in the assay on U2OS (48 h), active: 0.993.
